Results taken from the supplement of paper PMC4996465.
Viability of KB3-1 and Nalm-6 cells after 48 h of drug alone (CellTiter-Glo), 11 doses over about 4.5 log units. % of DMSO wells, lower = more cell loss; AC50 from the fitted curve, lower = more potent. No active / inactive call. Nalm-6 was screened in two runs. AC50 is listed only for well-fitted inhibitory curves. KB3-1 is a HeLa-derived carcinoma line, Nalm-6 a B-cell precursor leukaemia line.

Assays:
[1] = tested on: KB3-1; assay: viability (% of DMSO control); higher = more viable cells
Method: (§1)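 Eleven-dose screen of the NCATS MIPE 3 library on cells without co-treatment; CellTiter-Glo after 48 h, as % of DMSO wells.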

[2] = tested on: Nalm-6; assay: as above
Method: as §1

[3] = tested on: KB3-1; assay: log AC50 of viability decrease (48 h) (log10 M); higher = less potent
Method: (§2)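 Eleven-dose screen of the NCATS MIPE 3 library on cells without co-treatment; CellTiter-Glo after 48 h. AC50 from the curve fit; only inhibitory curves of the better fit classes are listed.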

[4] = tested on: Nalm-6; assay: as above
Method: as §2

COc1ccc2c(c[n+](C)c3c4cc5c(cc4ccc23)OCO5)c1OC [Chelerythrine chloride]
Details | log AC50 of viability decrease | viability [%]
[1], 0.00078 µM | – | 101
[1], 0.00234 µM | – | 104
[1], 0.00702 µM | – | 101
[1], 0.0211 µM | – | 98.5
[1], 0.0632 µM | – | 101
[1], 0.19 µM | – | 98.1
[1], 0.569 µM | – | 97
[1], 1.71 µM | – | 96.2
[1], 5.12 µM | – | 79.8
[1], 15.4 µM | – | 13.2
[1], 46.1 µM | – | 2.47
[2], run: 1, 0.00078 µM | – | 116
[2], run: 1, 0.00234 µM | – | 124
[2], run: 1, 0.00702 µM | – | 121
[2], run: 1, 0.0211 µM | – | 120
[2], run: 1, 0.0632 µM | – | 115
[2], run: 1, 0.19 µM | – | 117
[2], run: 1, 0.569 µM | – | 84
[2], run: 1, 1.71 µM | – | 54.3
[2], run: 1, 5.12 µM | – | 8.01
[2], run: 1, 15.4 µM | – | 6.16
[2], run: 1, 46.1 µM | – | 2.93
[2], run: 2, 0.00078 µM | – | 108
[2], run: 2, 0.00234 µM | – | 108
[2], run: 2, 0.00702 µM | – | 116
[2], run: 2, 0.0211 µM | – | 110
[2], run: 2, 0.0632 µM | – | 104
[2], run: 2, 0.19 µM | – | 107
[2], run: 2, 0.569 µM | – | 97.8
[2], run: 2, 1.71 µM | – | 43.2
[2], run: 2, 5.12 µM | – | 5.9
[2], run: 2, 15.4 µM | – | 5.68
[2], run: 2, 46.1 µM | – | 3.6
[4], run: 1 | -5.88 | –
[4], run: 2 | -5.88 | –

Details | log AC50 of viability decrease
[3] | -5.08

Nc1nc(Cl)nc2c1ncn2[C@H]1C[C@H](O)[C@@H](CO)O1 [Cladribine]
Details | log AC50 of viability decrease | viability [%]
[1], 0.00156 µM | – | 104
[1], 0.00468 µM | – | 106
[1], 0.014 µM | – | 104
[1], 0.0421 µM | – | 110
[1], 0.126 µM | – | 103
[1], 0.379 µM | – | 104
[1], 1.14 µM | – | 102
[1], 3.41 µM | – | 98.5
[1], 10.2 µM | – | 100
[1], 30.7 µM | – | 89.7
[1], 92.2 µM | – | 9.18
[2], run: 1, 0.00156 µM | – | 125
[2], run: 1, 0.00468 µM | – | 121
[2], run: 1, 0.014 µM | – | 119
[2], run: 1, 0.0421 µM | – | 126
[2], run: 1, 0.126 µM | – | 117
[2], run: 1, 0.379 µM | – | 85.5
[2], run: 1, 1.14 µM | – | 75.9
[2], run: 1, 3.41 µM | – | 56.6
[2], run: 1, 10.2 µM | – | 48.7
[2], run: 1, 30.7 µM | – | 36.5
[2], run: 1, 92.2 µM | – | 3.08
[2], run: 2, 0.00156 µM | – | 113
[2], run: 2, 0.00468 µM | – | 108
[2], run: 2, 0.014 µM | – | 106
[2], run: 2, 0.0421 µM | – | 114
[2], run: 2, 0.126 µM | – | 95.8
[2], run: 2, 0.379 µM | – | 85.1
[2], run: 2, 1.14 µM | – | 55.3
[2], run: 2, 3.41 µM | – | 59.2
[2], run: 2, 10.2 µM | – | 56.5
[2], run: 2, 30.7 µM | – | 42.9
[2], run: 2, 92.2 µM | – | 3.16
[4], run: 1 | -5.42 | –
[4], run: 2 | -5.02 | –

Details | log AC50 of viability decrease
[3] | -4.32

C[C@@H]1C[C@H]2[C@@H]3\C=C(C)/C4=C/C5=C(C[C@]4(C)[C@H]3[C@@H](O)C[C@]2(C)[C@@]1(O)C(=O)COC(C)=O)C=N[N]5C6=CC=CC=C6 [Cortivazol]
Details | log AC50 of viability decrease | viability [%]
[1], 0.00078 µM | – | 105
[1], 0.00234 µM | – | 104
[1], 0.00702 µM | – | 104
[1], 0.0211 µM | – | 111
[1], 0.0632 µM | – | 101
[1], 0.19 µM | – | 99.5
[1], 0.569 µM | – | 103
[1], 1.71 µM | – | 105
[1], 5.12 µM | – | 92.5
[1], 15.4 µM | – | 76.2
[1], 46.1 µM | – | 1.82
[2], run: 1, 0.00078 µM | – | 55.1
[2], run: 1, 0.00234 µM | – | 45
[2], run: 1, 0.00702 µM | – | 43.1
[2], run: 1, 0.0211 µM | – | 40.1
[2], run: 1, 0.0632 µM | – | 41.5
[2], run: 1, 0.19 µM | – | 40.1
[2], run: 1, 0.569 µM | – | 42.9
[2], run: 1, 1.71 µM | – | 27.1
[2], run: 1, 5.12 µM | – | 8.8
[2], run: 1, 15.4 µM | – | 6.31
[2], run: 1, 46.1 µM | – | 0.567
[2], run: 2, 0.00078 µM | – | 51.3
[2], run: 2, 0.00234 µM | – | 44.5
[2], run: 2, 0.00702 µM | – | 40.5
[2], run: 2, 0.0211 µM | – | 40.8
[2], run: 2, 0.0632 µM | – | 38.1
[2], run: 2, 0.19 µM | – | 40
[2], run: 2, 0.569 µM | – | 38
[2], run: 2, 1.71 µM | – | 13.3
[2], run: 2, 5.12 µM | – | 4.39
[2], run: 2, 15.4 µM | – | 3.74
[2], run: 2, 46.1 µM | – | -0.0303
[4], run: 1 | -5.43 | –
[4], run: 2 | -5.88 | –

Details | log AC50 of viability decrease
[3] | -4.58

C[C@@H](Oc1cc(-c2cnn(C3CCNCC3)c2)cnc1N)c1c(Cl)ccc(F)c1Cl [Crizotinib]
Details | log AC50 of viability decrease | viability [%]
[1], 0.00078 µM | – | 105
[1], 0.00234 µM | – | 104
[1], 0.00702 µM | – | 104
[1], 0.0211 µM | – | 106
[1], 0.0632 µM | – | 103
[1], 0.19 µM | – | 102
[1], 0.569 µM | – | 103
[1], 1.71 µM | – | 95.7
[1], 5.12 µM | – | 79.2
[1], 15.4 µM | – | 74.1
[1], 46.1 µM | – | 29.8
[2], run: 1, 0.00078 µM | – | 122
[2], run: 1, 0.00234 µM | – | 118
[2], run: 1, 0.00702 µM | – | 125
[2], run: 1, 0.0211 µM | – | 116
[2], run: 1, 0.0632 µM | – | 116
[2], run: 1, 0.19 µM | – | 105
[2], run: 1, 0.569 µM | – | 108
[2], run: 1, 1.71 µM | – | 80
[2], run: 1, 5.12 µM | – | 46.2
[2], run: 1, 15.4 µM | – | 33.1
[2], run: 1, 46.1 µM | – | -0.765
[2], run: 2, 0.00078 µM | – | 109
[2], run: 2, 0.00234 µM | – | 111
[2], run: 2, 0.00702 µM | – | 106
[2], run: 2, 0.0211 µM | – | 107
[2], run: 2, 0.0632 µM | – | 110
[2], run: 2, 0.19 µM | – | 106
[2], run: 2, 0.569 µM | – | 108
[2], run: 2, 1.71 µM | – | 89.1
[2], run: 2, 5.12 µM | – | 64.5
[2], run: 2, 15.4 µM | – | 66.2
[2], run: 2, 46.1 µM | – | -0.749
[4], run: 1 | -5.28 | –
[4], run: 2 | -4.78 | –

Details | log AC50 of viability decrease
[3] | -4.73

C[C@@H]1CN[C@H]2[C@@H](C)[C@@]\3(CC[C@H]\4[C@@H]5C/C=C6/C[C@@H](O)CC[C@]6(C)[C@H]5CC4=C3C)O[C@@H]2C1 [Cyclopamine]
Details | log AC50 of viability decrease | viability [%]
[1], 0.00078 µM | – | 100
[1], 0.00234 µM | – | 97.7
[1], 0.00702 µM | – | 93.2
[1], 0.0211 µM | – | 103
[1], 0.0632 µM | – | 102
[1], 0.19 µM | – | 97.6
[1], 0.569 µM | – | 101
[1], 1.71 µM | – | 95.3
[1], 5.12 µM | – | 88.2
[1], 15.4 µM | – | 87.5
[1], 46.1 µM | – | 62.9
[2], run: 1, 0.00078 µM | – | 92.2
[2], run: 1, 0.00234 µM | – | 97.6
[2], run: 1, 0.00702 µM | – | 98.4
[2], run: 1, 0.0211 µM | – | 102
[2], run: 1, 0.0632 µM | – | 103
[2], run: 1, 0.19 µM | – | 114
[2], run: 1, 0.569 µM | – | 95.1
[2], run: 1, 1.71 µM | – | 96.8
[2], run: 1, 5.12 µM | – | 82.2
[2], run: 1, 15.4 µM | – | 85.1
[2], run: 1, 46.1 µM | – | 0.848
[2], run: 2, 0.00078 µM | – | 102
[2], run: 2, 0.00234 µM | – | 104
[2], run: 2, 0.00702 µM | – | 99.8
[2], run: 2, 0.0211 µM | – | 110
[2], run: 2, 0.0632 µM | – | 104
[2], run: 2, 0.19 µM | – | 105
[2], run: 2, 0.569 µM | – | 101
[2], run: 2, 1.71 µM | – | 93
[2], run: 2, 5.12 µM | – | 84.9
[2], run: 2, 15.4 µM | – | 85.4
[2], run: 2, 46.1 µM | – | 0.414
[4], run: 1 | -4.58 | –
[4], run: 2 | -4.63 | –

Details | log AC50 of viability decrease
[3] | -4.68
